This is one part of the list. At the low end of the ranking the order means little.

For the assay, the target named is GST-SBP-SLBP (stem-loop binding protein) (UniProt Q14493). Briefly: targeted RNA Bind-n-Seq.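 Also: DESeq read counts versus GST-SBP nonspecific binding control pulldown.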 The note with it: RBNS binding buffer: 25 mM Tris pH 7.5, 150 mM KCl, 3 mM MgCl2, 0.1% Tween, 0.5 mg/mL BSA, 1 mM DTT; 27 nM protein, 750 pM RNA pool; temperature not stated; high values mean tight binding.
Regarding “GGUCACGUCUCAAUCAACUCAACUCCCAGGGAAAGCCCUGGCUAUUUCAACAGCUCGCAGUCAAG”, the binding signal (log2 fold change) was -0.0393.
As to “GGUCACGUCUCAAUCAACUCUACGCCAGGAGUUUUCUCCUGUAUAUUCAACAGCUCGCAGUCAAG”, the binding signal (log2 fold change) was -0.0843.
The figure for “GGUCACGUCUCAAUCAACUCCACGGAGGGGGGGAAAACCCCUUUACCCUCAUAAUCAACAGCUCGCAGUCAAG” is 0.229; for “GGUCACGUCUCAAUCAACUCAUCAGAGGGGGGGAAAACCCCUUUACCCUCCGUUUCAACAGCUCGCAGUCAAG” it is 0.0998; for “GGUCACGUCUCAAUCAACUCUUCGCCCAGGGAAACCCCUGGUUUAUUCAACAGCUCGCAGUCAAG” it is -0.186.
On to “GGUCACGUCUCAAUCAACUCUAUUUCAGGAGUUUCCUCCUGUUAUUUCAACAGCUCGCAGUCAAG”, for which the binding signal (log2 fold change) was -0.0478.
To “GGUCACGUCUCAAUCAACUCUAUCGAGGGGGGGAAAACCCCUUUGCCCUCACAAUCAACAGCUCGCAGUCAAG” belongs -0.0772; to “GGUCACGUCUCAAUCAACUCUCAAGAGGGGGGGAAAACCCCUUUACCCUCACAUUCAACAGCUCGCAGUCAAG”, -0.0105.
The figure for “GGUCACGUCUCAAUCAACUCAAUUCCAGGAGUUUGCUCCUGCAUUCUCAACAGCUCGCAGUCAAG” is 0.0215; for “GGUCACGUCUCAAUCAACUCCCACGAGGGGGGGAAAACCCCUUUACCCUCACUUUCAACAGCUCGCAGUCAAG” it is -0.0166.
As to “GGUCACGUCUCAAUCAACUCUUCCUCAGGAGUUUCCUCCUGUUAUGUCAACAGCUCGCAGUCAAG”, the binding signal (log2 fold change) stood at 0.0573.
To “GGUCACGUCUCAAUCAACUCUUAAGAGGGGGGGAAAACCCCUUUACCCUCAUCGUCAACAGCUCGCAGUCAAG” belongs 0.252; to “GGUCACGUCUCAAUCAACUCUUCUCCAGGAGUUUACUCCUGCAUACUCAACAGCUCGCAGUCAAG”, 0.123; to “GGUCACGUCUCAAUCAACUCAUCUUCCAGGGAAAGCCCUGGCUUAUUCAACAGCUCGCAGUCAAG”, -0.0886.
The figure for “GGUCACGUCUCAAUCAACUCAUCAGAGGGGGGGAAAACCCCUUUACCCUCAAUCUCAACAGCUCGCAGUCAAG” is 0.0499; for “GGUCACGUCUCAAUCAACUCUUCUUCAGGAGUUUCCUCCUGUUAUCUCAACAGCUCGCAGUCAAG” it is 0.106.
To “GGUCACGUCUCAAUCAACUCUUCUCCCAGGGAAAGCCCUGGUUUAUUCAACAGCUCGCAGUCAAG” belongs 0.125; to “GGUCACGUCUCAAUCAACUCAACUUCAGGAGUUUUCUCCUGUUAAUUCAACAGCUCGCAGUCAAG”, -0.0599.
Regarding “GGUCACGUCUCAAUCAACUCUUCUCCCAGGGAAAACCCUGGCAAUGUCAACAGCUCGCAGUCAAG”, the binding signal (log2 fold change) was 0.228.
For “GGUCACGUCUCAAUCAACUCAUUCCCCAGGGAAACCCCUGGCUUAUUCAACAGCUCGCAGUCAAG”, the binding signal (log2 fold change) was -0.101.
The figure for “GGUCACGUCUCAAUCAACUCUUUCUCCAGGGAAAUCCCUGGCUUAUUCAACAGCUCGCAGUCAAG” is 0.0356.
The figure for “GGUCACGUCUCAAUCAACUCAUUAGAGGGGGGGAAAACCCCUUUACCCUCCAUAUCAACAGCUCGCAGUCAAG” is -0.08; for “GGUCACGUCUCAAUCAACUCAUCUCCAGGAGUUUACUCCUGUUUUUUCAACAGCUCGCAGUCAAG” it is -0.212.
On to “GGUCACGUCUCAAUCAACUCAUCUUCAGGAGUUUCCUCCUGUUAUUUCAACAGCUCGCAGUCAAG”, for which the binding signal (log2 fold change) is -0.00462.
In the case of “GGUCACGUCUCAAUCAACUCUAUCUCCAGGGAAACCCCUGGUAUACUCAACAGCUCGCAGUCAAG”, the binding signal (log2 fold change) came out at 0.256.
Regarding “GGUCACGUCUCAAUCAACUCUUCCUCCAGGGAAAACCCUGGCAAAUUCAACAGCUCGCAGUCAAG”, the binding signal (log2 fold change) amounted to 0.0751.
Turning to “GGUCACGUCUCAAUCAACUCAUCAGAGGGGGGGAAAACCCCUUUACCCUCCAACUCAACAGCUCGCAGUCAAG”, the binding signal (log2 fold change) was -0.437.
To “GGUCACGUCUCAAUCAACUCAACGGCAGGAGUUUACUCCUGGAAAUUCAACAGCUCGCAGUCAAG” belongs -0.134; to “GGUCACGUCUCAAUCAACUCUACUCCAGGAGUUUCCUCCUGCAAAUUCAACAGCUCGCAGUCAAG”, 0.0392.
To “GGUCACGUCUCAAUCAACUCUUCCCCAGGAGUUUACUCCUGUUUUUUCAACAGCUCGCAGUCAAG” belongs -0.00655.
On to “GGUCACGUCUCAAUCAACUCUAUUCCCAGGGAAACCCCUGGCUUACUCAACAGCUCGCAGUCAAG”, for which the binding signal (log2 fold change) was -0.00656.
The figure for “GGUCACGUCUCAAUCAACUCAUUUUCAGGAGUUUGCUCCUGCUUUCUCAACAGCUCGCAGUCAAG” is 0.00836; for “GGUCACGUCUCAAUCAACUCAUCUUCCAGGGAAAGCCCUGGCAAAUUCAACAGCUCGCAGUCAAG” it is -0.23; for “GGUCACGUCUCAAUCAACUCACACGAGGGGGGGAAAACCCCUUUACCCUCAACAUCAACAGCUCGCAGUCAAG” it is -0.196.
The figure for “GGUCACGUCUCAAUCAACUCAAUUCCCAGGGAAACCCCUGGCAAACUCAACAGCUCGCAGUCAAG” is -0.309; for “GGUCACGUCUCAAUCAACUCAGUCCCCAGGGAAACCCCUGGUAAAUUCAACAGCUCGCAGUCAAG” it is -0.287; for “GGUCACGUCUCAAUCAACUCAACAGAGGGGGGGAAAACCCCUUUACCCUCAUUAUCAACAGCUCGCAGUCAAG” it is 0.00639.
Regarding “GGUCACGUCUCAAUCAACUCAACUCCCAGGGAAACCCCUGGCAUACUCAACAGCUCGCAGUCAAG”, the binding signal (log2 fold change) was -0.147.
Take “GGUCACGUCUCAAUCAACUCAAUUCCAGGAGUUUACUCCUGCAUACUCAACAGCUCGCAGUCAAG”: the binding signal (log2 fold change) was -0.0319.
To “GGUCACGUCUCAAUCAACUCAACUCCCAGGGAAAUCCCUGGUAUUUUCAACAGCUCGCAGUCAAG” belongs -0.00117.
As to “GGUCACGUCUCAAUCAACUCAAUCUCCAGGGAAAGCCCUGGUUUUUUCAACAGCUCGCAGUCAAG”, the binding signal (log2 fold change) is -0.235.
Take “GGUCACGUCUCAAUCAACUCAUCCUCAGGAGUUUCCUCCUGUUAAUUCAACAGCUCGCAGUCAAG”: the binding signal (log2 fold change) came out at 0.243.
As to “GGUCACGUCUCAAUCAACUCAUCGUCAGGAGUUUUCUCCUGCAUAUUCAACAGCUCGCAGUCAAG”, the binding signal (log2 fold change) is -0.0258.
For the sequence “GGUCACGUCUCAAUCAACUCCUAAGAGGGGGGGAAAACCCCUUUGCCCUCAUCGUCAACAGCUCGCAGUCAAG”, the binding signal (log2 fold change) was found to be 0.0648.
To “GGUCACGUCUCAAUCAACUCAACUUCCAGGGAAAACCCUGGUAAACUCAACAGCUCGCAGUCAAG” belongs -0.141.
To “GGUCACGUCUCAAUCAACUCAACUUCAGGAGUUUCCUCCUGCUAAUUCAACAGCUCGCAGUCAAG” belongs 0.0615.
The figure for “GGUCACGUCUCAAUCAACUCAACUCCAGGAGUUUCCUCCUGUAUUCUCAACAGCUCGCAGUCAAG” is -0.225; for “GGUCACGUCUCAAUCAACUCAACUUCCAGGGAAACCCCUGGCUUACUCAACAGCUCGCAGUCAAG” it is 0.0953.
Turning to “GGUCACGUCUCAAUCAACUCUUCGCCAGGAGUUUUCUCCUGCAAUUUCAACAGCUCGCAGUCAAG”, the binding signal (log2 fold change) is -0.078.
For “GGUCACGUCUCAAUCAACUCUUCUCCCAGGGAAAGCCCUGGCAUUCUCAACAGCUCGCAGUCAAG”, the binding signal (log2 fold change) is -0.0709.
To “GGUCACGUCUCAAUCAACUCAACUUCAGGAGUUUCCUCCUGUAUUCUCAACAGCUCGCAGUCAAG” belongs 0.0768; to “GGUCACGUCUCAAUCAACUCUAUUUCAGGAGUUUACUCCUGCUAUCUCAACAGCUCGCAGUCAAG”, 0.084.
Consider “GGUCACGUCUCAAUCAACUCAAUUCCAGGAGUUUCCUCCUGUUUUCUCAACAGCUCGCAGUCAAG”, for which the binding signal (log2 fold change) stood at 0.113.
On to “GGUCACGUCUCAAUCAACUCAUCCUCCAGGGAAAGCCCUGGCUAAUUCAACAGCUCGCAGUCAAG”, for which the binding signal (log2 fold change) was determined as 0.254.
With “GGUCACGUCUCAAUCAACUCAAUUCCCAGGGAAACCCCUGGCUAACUCAACAGCUCGCAGUCAAG”, the binding signal (log2 fold change) is -0.0125.
The figure for “GGUCACGUCUCAAUCAACUCAAACGAGGGGGGGAAAACCCCUUUACCCUCCAUUUCAACAGCUCGCAGUCAAG” is 0.106.
For “GGUCACGUCUCAAUCAACUCCAUCGAGGGGGGGAAAACCCCUUUACCCUCUACAUCAACAGCUCGCAGUCAAG”, the binding signal (log2 fold change) is -0.249.
Consider “GGUCACGUCUCAAUCAACUCAUGUCCAGGAGUUUUCUCCUGUUAAUUCAACAGCUCGCAGUCAAG”, for which the binding signal (log2 fold change) was -0.0274.
To “GGUCACGUCUCAAUCAACUCUCUAGAGGGGGGGAAAACCCCUUUACCCUCAACUUCAACAGCUCGCAGUCAAG” belongs -0.0416; to “GGUCACGUCUCAAUCAACUCAUUCUCCAGGGAAAUCCCUGGCAUUUUCAACAGCUCGCAGUCAAG”, -0.0443; to “GGUCACGUCUCAAUCAACUCAUCGUCAGGAGUUUACUCCUGUUAACUCAACAGCUCGCAGUCAAG”, -0.114.
In the case of “GGUCACGUCUCAAUCAACUCUAUUUCAGGAGUUUACUCCUGCUAUUUCAACAGCUCGCAGUCAAG”, the binding signal (log2 fold change) was determined as 0.101.
The figure for “GGUCACGUCUCAAUCAACUCUUUUCCCAGGGAAAACCCUGGUUUUCUCAACAGCUCGCAGUCAAG” is 0.141; for “GGUCACGUCUCAAUCAACUCUUCUCCCAGGGAAAUCCCUGGUAAUCUCAACAGCUCGCAGUCAAG” it is 0.041; for “GGUCACGUCUCAAUCAACUCUUUUCCAGGAGUUUUCUCCUGUUUUUUCAACAGCUCGCAGUCAAG” it is 0.135.
Turning to “GGUCACGUCUCAAUCAACUCACUAGAGGGGGGGAAAACCCCUUUACCCUCGUUAUCAACAGCUCGCAGUCAAG”, the binding signal (log2 fold change) is -0.0946.
The figure for “GGUCACGUCUCAAUCAACUCUAUUCCAGGAGUUUACUCCUGUAUACUCAACAGCUCGCAGUCAAG” is 0.0985.
The figure for “GGUCACGUCUCAAUCAACUCUUCCCCCAGGGAAAACCCUGGCAAAUUCAACAGCUCGCAGUCAAG” is 0.235; for “GGUCACGUCUCAAUCAACUCUUUCGCAGGAGUUUCCUCCUGGUAUCUCAACAGCUCGCAGUCAAG” it is 0.0128.
To “GGUCACGUCUCAAUCAACUCUACUCCAGGAGUUUACUCCUGCUUAUUCAACAGCUCGCAGUCAAG” belongs -0.277.
On to “GGUCACGUCUCAAUCAACUCCUUAGAGGGGGGGAAAACCCCUUUACCCUCGUCAUCAACAGCUCGCAGUCAAG”, for which the binding signal (log2 fold change) was determined as 0.106.
As to “GGUCACGUCUCAAUCAACUCUUUCGCAGGAGUUUACUCCUGGUUUUUCAACAGCUCGCAGUCAAG”, the binding signal (log2 fold change) is -0.098.
For “GGUCACGUCUCAAUCAACUCAGUCCCAGGAGUUUCCUCCUGCAAAUUCAACAGCUCGCAGUCAAG”, the binding signal (log2 fold change) was -0.101.
The figure for “GGUCACGUCUCAAUCAACUCAACUCCAGGAGUUUACUCCUGUUUUCUCAACAGCUCGCAGUCAAG” is -0.0938.

(Values after PMC5892938.)
